The record followed here is the RNAGym collection of RNA variant scans (doi:10.1073/pnas.2313332121).

This sample is rich in variants without activity.

To fix the notation:
B1: TPR 5TU (parent)
chain: GGAUCUUCUCGAUCUAACAAAAAAGACAAAUCUGCCACAAAGCUUGAGAGCAUCUUCGGAUGCAGAGGCGGCAGCCUUCGGUGGCGCGAUAGCGCCAACGUUCUCAACUAUGACACGCAAAACGCGUGCUCCGUUGAAUGGAGUUUAUCAUG

Variants of B1 are the subject of this data set. The experiment in a line: polymerase ribozyme fitness, log enrichment relative to wild type (log ratio); higher = more active; in vitro selection for triplet polymerase activity. The method, boiled down:
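Mutant libraries of each subunit of a heterodimeric triplet polymerase ribozyme were built by PCR and transcribed. Each library went through one round of in vitro selection in triplicate: annealing with biotinylated primer, partner subunit and triplets, frozen incubation at −7 °C, gel excision of extended constructs, streptavidin-bead capture and RT-PCR. Input and output libraries were Illumina-sequenced; only genotypes with ≥10 input reads and ≥1 read per output were kept. Fitness is log2(genotype enrichment/wild-type enrichment), using inverse-variance-weighted replicate averages.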
Take C10G C85U: the “polymerase ribozyme fitness (log ratio)” value was -3. Take C10U C27U C43A G58A G83A G88U C105U G117U U134G: the “polymerase ribozyme fitness (log ratio)” value was ≤ -4.2. As for G11C A138C, the figure is ≤ -4.2.

As for C10U G25U C32A C76A G83U G88C C93G, the “polymerase ribozyme fitness (log ratio)” value is ≤ -4.2.

For the variant G11C U90G C132G A138C G141U, the “polymerase ribozyme fitness (log ratio)” value was ≤ -4.2. To C10U C57A C75G C132G belongs ≤ -4.2.

Turning to C10G U55G C75U A91G, the “polymerase ribozyme fitness (log ratio)” value is ≤ -4.2.

As for G11C C35A A60C G81U C87G, the “polymerase ribozyme fitness (log ratio)” value is ≤ -4.2.

Turning to G11A A28U A52C C75G C79A C85G C87G A106G U134G G140A, the “polymerase ribozyme fitness (log ratio)” value is ≤ -4.2. As for G11C C43U C79G G84A C116A U145A, the figure is ≤ -4.2; as for C10U A22C A28U A39C G81A U90G C93G A122U, ≤ -4.2; as for G11C A23C G58A G81C C87A A138U, ≤ -4.2. To C10U G94A C96U C99G U144G belongs ≤ -4.2; to G11A U33A C38U C87A, ≤ -4.2. As for C10U A17C C38U G58C C96G, the figure is -3.69; as for G11A A30C C99A C118U U145G, ≤ -4.2; as for G11C A24C A39G G71C C95G C99U G112A G133U U135G A137C, ≤ -4.2. As to G11A C27U A49G C96A C118U U145A, the “polymerase ribozyme fitness (log ratio)” value is -4.19. To C10U A52U C85A belongs ≤ -4.2; to C10U A49C A52G G68C G92U C131U U146C, ≤ -4.2; to C10U A17C A21C C51U C85A C99U A119C, ≤ -4.2. To G11C U33A U44A G62A A91G G124U belongs ≤ -4.2; to C10U U56G C57U G70A C79G C85U U139C, ≤ -4.2.

In the case of G11C G67C C93G C118U, the “polymerase ribozyme fitness (log ratio)” value is ≤ -4.2. To G11C G25U A52C C54U C95U A107G U144A belongs ≤ -4.2. As for G11A A19C A29U U31C A73C G84U C123A G141C, the figure is ≤ -4.2; as for C10G G11A A22U A26G C38U A49C G50A G92A A147G, ≤ -4.2; as for G11A G68A, ≤ -4.2. As for C10U A60G A64U C85U C129A, the figure is ≤ -4.2.

For C10U G42C U53A A66G A91G A110C, the “polymerase ribozyme fitness (log ratio)” value was ≤ -4.2.

Take G11A G70C A107U: the “polymerase ribozyme fitness (log ratio)” value is ≤ -4.2.

As for G11C A19U C27U U61A C93G A97U U101G U151G, the “polymerase ribozyme fitness (log ratio)” value was ≤ -4.2.

As to G11A G48A A52C G83A C87U A119C G124C, the “polymerase ribozyme fitness (log ratio)” value is ≤ -4.2. To C10G G25U U31C C38U C63G C93G C108U belongs ≤ -4.2; to G11C A19C A30U G84A G94U C116U, ≤ -4.2. As for C10U U15A C36A A37G G92A C96G, the figure is ≤ -4.2; as for C10U G42C A52C A64C G94A, ≤ -4.2. To C10U A39U C51U A89G G92U A97U C116G G117A belongs ≤ -4.2; to G11U A23U A37C A64C C76A C132U, ≤ -4.2. For G11C G34A C76U G86A G92C G128U G140U, the “polymerase ribozyme fitness (log ratio)” value is ≤ -4.2. As for G11C A19C G46A G68A G88A C95U C99G C108U, the figure is ≤ -4.2. To G11A A26U G48A U109C A147G belongs ≤ -4.2; to C10G U56A G58U U61G G62A G92U C123U, ≤ -4.2. As for C10G G48A U82A A91G C95G A97C A137U, the figure is ≤ -4.2; as for C10G G42A A52U G94A A97U A120G C129G, ≤ -4.2. Regarding G11U A19G A26U A91G G92A U127C A138G, the “polymerase ribozyme fitness (log ratio)” value was ≤ -4.2. To G11C U45A C79G C96G C149G belongs ≤ -4.2; to G11A A20U A22G A41U C96A A98U C116U, ≤ -4.2. As for G11C G50U U77G, the figure is ≤ -4.2. To G11C U77C A91U A106G A115G belongs ≤ -4.2; to G11U A21U G74C G92U, ≤ -4.2.

C10U C35U G50A G65C C85U C93U C149A: the “polymerase ribozyme fitness (log ratio)” value is ≤ -4.2.

On to C10G G68C G83U A107C, for which the “polymerase ribozyme fitness (log ratio)” value is ≤ -4.2. As for C10G G81A G141A G152A, the figure is ≤ -4.2; as for C10U A22C A29G, ≤ -4.2. To C10U A23U U33G C96G A115C belongs ≤ -4.2; to G11A C96U, -1.9; to G11C C27U G92U, -2.73.

For C10U U13G A23U G62A C96U U134A U144A, the “polymerase ribozyme fitness (log ratio)” value was ≤ -4.2. To G11C A20C U31A U55G G83A A97U C105A belongs ≤ -4.2; to C10U A21U A29U A52C U53A A64G G65A G81A A97U C99U A107G U139C A142U, ≤ -4.2; to G11A A41C G46C G50C C99U A150G, ≤ -4.2. To C10U C54U G81U C87U G100U C125G belongs ≤ -4.2. Take C10U A24U A29C G68C C79A C96A: the “polymerase ribozyme fitness (log ratio)” value was ≤ -4.2. As for C10G C149G, the figure is ≤ -4.2; as for C10U A37C C76U G86C C103G U139C, ≤ -4.2. On to G11A C54A C72G G92A C93U, for which the “polymerase ribozyme fitness (log ratio)” value was ≤ -4.2. Consider G11A A21U A91U A98U U109A, for which the “polymerase ribozyme fitness (log ratio)” value is ≤ -4.2.

In the case of G11A A17G A24C A26U C85U G86A U101A G128A U130C, the “polymerase ribozyme fitness (log ratio)” value was ≤ -4.2.

G11C A20U U31A C35G C54U C85A A89C C95G: the “polymerase ribozyme fitness (log ratio)” value is ≤ -4.2. C10G G74A A97U U111G: the “polymerase ribozyme fitness (log ratio)” value is ≤ -4.2. For G11A G94U A150U, the “polymerase ribozyme fitness (log ratio)” value is -0.735.

With G11A A17G A29C A40C G42C G67C G94A C96G A97C C118U A120U G133U, the “polymerase ribozyme fitness (log ratio)” value is ≤ -4.2.

Turning to C10U A39G G42U G59A A60C C63U A91U C105U A115C A142C, the “polymerase ribozyme fitness (log ratio)” value is ≤ -4.2.

Consider C10U G46A U55A U61A G81U C93A, for which the “polymerase ribozyme fitness (log ratio)” value is ≤ -4.2.

As to G11C C43A C85A U146A, the “polymerase ribozyme fitness (log ratio)” value is ≤ -4.2. As for G11A C14G A17G C27G C32A G48C G58C U82C, the figure is ≤ -4.2. Consider G11C U15C A19C C35G G86U G126A G152A, for which the “polymerase ribozyme fitness (log ratio)” value was ≤ -4.2. C10U A41G C57U A138G: the “polymerase ribozyme fitness (log ratio)” value is ≤ -4.2.

Regarding G11A A39U A52C U78G G88U C96A G141U U146G, the “polymerase ribozyme fitness (log ratio)” value was ≤ -4.2. To C10G C63U G94C U104C A106G C108A U139C belongs ≤ -4.2; to G11A A21U A73G C93U A120G U148C, ≤ -4.2.

Regarding C10U A52G G83A A122C U139C, the “polymerase ribozyme fitness (log ratio)” value was ≤ -4.2. As for C10G U53G U90C C123G, the figure is ≤ -4.2.
